# This is one part of the list.
# B1: NKR-PIC (Mus musculus) (protein)
# chain: GTGQKPSREKCCVFIQENLNKTTDCSVNLECPQDWLLHRDKCFHVSQVSNTWEEGQADCGRKGATLLLIQDQEELRFLLDSIKEKYNSFWIGLRFTLPDMNWKWINGTTFNSDVLKITGVTENGSCASILGDKVTPESCASDNRWICQKELNHETPSNDSGT
# Tests used:
# Experiment in all cases: glycan array binding signal (z-score within array); higher = stronger binding
# Conditions in all cases: glycan notation: IUPAC condensed, linker removed
# [1] = target: Fuc(a1-2)[Gal(a1-3)]Gal(b1-4)GlcNAc(b1-2)Man(a1-3)[Fuc(a1-2)[Gal(a1-3)]Gal(b1-4)GlcNAc(b1-2)Man(a1-6)]Man(b1-4)GlcNAc(b1-4)GlcNAc
# Method in brief: (§1)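 The Consortium for Functional Glycomics database supplied 3228 glycan arrays, of which those lacking an available protein sequence were dropped. The binding signal, a within-array Z-score, was averaged across arrays of the same protein sequence and across linkers. Negative scores can be read as non-binding.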
# [2] = target: Fuc(a1-2)[Gal(a1-3)]Gal(b1-4)GlcNAc(b1-2)Man(a1-3)[Fuc(a1-2)[Gal(a1-3)]Gal(b1-4)GlcNAc(b1-2)Man(a1-6)]Man(b1-4)GlcNAc(b1-4)[Fuc(a1-6)]GlcNAc
# Method in brief: as §1
# [3] = target: Fuc(a1-2)[Gal(a1-3)]Gal(b1-4)GlcNAc(b1-3)GalNAc
# Method in brief: as §1
# [4] = target: Fuc(a1-2)[Gal(a1-3)]Gal(b1-4)GlcNAc(b1-6)GalNAc
# Method in brief: as §1
# [5] = target: Fuc(a1-2)[Gal(a1-3)]Gal(b1-4)[Fuc(a1-3)]Glc
# Method in brief: as §1
# [6] = target: Fuc(a1-2)[Gal(a1-3)]Gal(b1-4)[Fuc(a1-3)]GlcNAc
# Method in brief: as §1
# [7] = target: Fuc(a1-2)[Gal(a1-3)]Gal(b1-4)[Fuc(a1-3)]GlcNAc(b1-3)GalNAc
# Method in brief: as §1
# [8] = target: Fuc(a1-2)[Gal(a1-4)]Gal(b1-4)GlcNAc
# Method in brief: as §1
# [9] = target: Fuc(a1-2)[GalNAc(a1-3)]Gal
# Method in brief: as §1
# [10] = target: Fuc(a1-2)[GalNAc(a1-3)]Gal(b1-3)GalNAc(a1-3)[Fuc(a1-2)]Gal(b1-4)GlcNAc
# Method in brief: as §1
# [11] = target: Fuc(a1-2)[GalNAc(a1-3)]Gal(b1-3)GalNAc(b1-3)Gal(a1-4)Gal(b1-4)Glc
# Method in brief: as §1
# [12] = target: Fuc(a1-2)[GalNAc(a1-3)]Gal(b1-3)GlcNAc
# Method in brief: as §1
# [13] = target: Fuc(a1-2)[GalNAc(a1-3)]Gal(b1-3)GlcNAc(b1-2)Man(a1-3)[Fuc(a1-2)[GalNAc(a1-3)]Gal(b1-3)GlcNAc(b1-2)Man(a1-6)]Man(b1-4)GlcNAc(b1-4)GlcNAc
# Method in brief: as §1
# [14] = target: Fuc(a1-2)[GalNAc(a1-3)]Gal(b1-3)GlcNAc(b1-2)Man(a1-3)[Fuc(a1-2)[GalNAc(a1-3)]Gal(b1-3)GlcNAc(b1-2)Man(a1-6)]Man(b1-4)GlcNAc(b1-4)[Fuc(a1-6)]GlcNAc
# Method in brief: as §1
# [15] = target: Fuc(a1-2)[GalNAc(a1-3)]Gal(b1-3)GlcNAc(b1-3)GalNAc
# Method in brief: as §1
# [16] = target: Fuc(a1-2)[GalNAc(a1-3)]Gal(b1-3)GlcNAc(b1-6)GalNAc
# Method in brief: as §1
# [17] = target: Fuc(a1-2)[GalNAc(a1-3)]Gal(b1-4)Glc
# Method in brief: as §1
# [18] = target: Fuc(a1-2)[GalNAc(a1-3)]Gal(b1-4)GlcNAc
# Method in brief: as §1
# [19] = target: Fuc(a1-2)[GalNAc(a1-3)]Gal(b1-4)GlcNAc(b1-2)Man
# Method in brief: as §1
# [20] = target: Fuc(a1-2)[GalNAc(a1-3)]Gal(b1-4)GlcNAc(b1-2)Man(a1-3)[Fuc(a1-2)[GalNAc(a1-3)]Gal(b1-4)GlcNAc(b1-2)Man(a1-6)]Man(b1-4)GlcNAc(b1-4)GlcNAc
# Method in brief: as §1
# [21] = target: Fuc(a1-2)[GalNAc(a1-3)]Gal(b1-4)GlcNAc(b1-2)Man(a1-3)[Fuc(a1-2)[GalNAc(a1-3)]Gal(b1-4)GlcNAc(b1-2)Man(a1-6)]Man(b1-4)GlcNAc(b1-4)[Fuc(a1-6)]GlcNAc
# Method in brief: as §1
# [22] = target: Fuc(a1-2)[GalNAc(a1-3)]Gal(b1-4)GlcNAc(b1-3)Gal(b1-4)GlcNAc
# Method in brief: as §1
# [23] = target: Fuc(a1-2)[GalNAc(a1-3)]Gal(b1-4)GlcNAc(b1-3)Gal(b1-4)GlcNAc(b1-3)Gal(b1-4)GlcNAc
# Method in brief: as §1
# [24] = target: Fuc(a1-2)[GalNAc(a1-3)]Gal(b1-4)GlcNAc(b1-3)GalNAc
# Method in brief: as §1
# [25] = target: Fuc(a1-2)[GalNAc(a1-3)]Gal(b1-4)GlcNAc(b1-3)[Fuc(a1-2)[GalNAc(a1-3)]Gal(b1-4)GlcNAc(b1-6)]GalNAc
# Method in brief: as §1
# [26] = target: Fuc(a1-2)[GalNAc(a1-3)]Gal(b1-4)GlcNAc(b1-6)GalNAc
# Method in brief: as §1
# [27] = target: Fuc(a1-2)[GalNAc(a1-3)]Gal(b1-4)[Fuc(a1-3)]GlcNAc
# Method in brief: as §1
# [28] = target: Fuc(a1-2)[GalNAc(a1-3)]Gal(b1-4)[Fuc(a1-3)]GlcNAc(b1-3)GalNAc
# Method in brief: as §1
# [29] = target: Fuc(a1-2)[GalNAc(a1-4)]Gal(b1-4)GlcNAc
# Method in brief: as §1
# [30] = target: Fuc(a1-2)[GalNAc(b1-3)]Gal
# Method in brief: as §1
binder,measurement,setting,value
B1,glycan array binding signal (z-score),[1],-0.284
same,glycan array binding signal (z-score),[2],-0.335
same,glycan array binding signal (z-score),[3],-0.29
same,glycan array binding signal (z-score),[4],-0.381
same,glycan array binding signal (z-score),[5],-0.341
same,glycan array binding signal (z-score),[6],-0.31
same,glycan array binding signal (z-score),[7],-0.336
same,glycan array binding signal (z-score),[8],0.036
same,glycan array binding signal (z-score),[9],-0.234
same,glycan array binding signal (z-score),[10],-0.091
same,glycan array binding signal (z-score),[11],-0.36
same,glycan array binding signal (z-score),[12],-0.378
same,glycan array binding signal (z-score),[13],-0.358
same,glycan array binding signal (z-score),[14],-0.375
same,glycan array binding signal (z-score),[15],-0.376
same,glycan array binding signal (z-score),[16],-0.363
same,glycan array binding signal (z-score),[17],-0.354
same,glycan array binding signal (z-score),[18],1.5
same,glycan array binding signal (z-score),[19],-0.369
same,glycan array binding signal (z-score),[20],-0.301
same,glycan array binding signal (z-score),[21],-0.283
same,glycan array binding signal (z-score),[22],0.488
same,glycan array binding signal (z-score),[23],-0.243
same,glycan array binding signal (z-score),[24],-0.369
same,glycan array binding signal (z-score),[25],-0.334
same,glycan array binding signal (z-score),[26],0.131
same,glycan array binding signal (z-score),[27],-0.33
same,glycan array binding signal (z-score),[28],-0.341
same,glycan array binding signal (z-score),[29],3.44
same,glycan array binding signal (z-score),[30],-0.316
